Biological target: the molecule itself
Experiment: cross-linking; in vivo: intact 293T cells (WT; MIEF1/2/Mff-/-; overexpressing MIEF1-V5, MIEF2-V5 or Myc-Mff; or Drp1-/- transfected with untagged Drp1 for 18 h) with 1 mM DSS in PBS with Ca2+/Mg2+, time course or 3 h, room temperature, quenched with 50 mM Tris pH 7.5; reducing SDS-PAGE and Western blot

B1: untagged […]D (natural protein)
chain: not shown
notes: human Drp1 isoform 1 with the disease-associated lethal mutation A395D, untagged; Made by site-directed mutagenesis on untagged Drp1-WT; Copies: said to form mainly tetramers (~280 kDa)
stoichiometry N: 4
